Structures are written as SMILES. Some of the results follow. Repeats are few or missing, and single values can be far off.
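Also: cell number obtained by counting DAPI-stained nuclei in high-throughput microscope images with image analysis software, screen run in 1,536-well plates.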

The assay has as its system LB2518-MEL. Description: cell count relative to DMSO control; melanoma cells; higher = more viable cells. To be noted: library dose: low library concentration; 72 h.
With `CCN(CC)CCNC(=O)c1c(C)[nH]c(/C=C2\C(=O)Nc3ccc(F)cc32)c1C` [sunitinib] + Clc1ccc(Nc2nnc(Cc3ccncc3)c3ccccc23)cc1 [vatalanib] (first compound 0.4 µM, partner dose 2 µM), the cell count was 95%.

In the case of `COc1cc([C@@H]2c3cc4c(cc3[C@@H](O[C@@H]3O[C@@H]5CO[C@@H](C)O[C@H]5[C@H](O)[C@H]3O)[C@H]3COC(=O)[C@H]23)OCO4)cc(OC)c1O` [etoposide] + Cn1c(Nc2ccc(C(F)(F)F)cc2)nc2cc(Oc3ccnc(-c4ncc(C(F)(F)F)[nH]4)c3)ccc21 [CHIR265] (first compound 0.02 µM, partner dose 0.08 µM), the cell count was 61.4%.

`CCN(CC)CCNC(=O)c1c(C)[nH]c(/C=C2\C(=O)Nc3ccc(F)cc32)c1C` [sunitinib] + O=C(O)[C@@H]1[O][Sb](=[O])([O][Sb]2(=[O])[O][C@H]([C@H](O)CO)[C@H](O)[C@H](C(=O)O)[O]2)[O][C@H]([C@H](O)CO)[C@@H]1O [stibogluconate] (first compound 0.4 µM, partner dose 2 µM) registered a cell count of 108%.

In turn, `COc1cc([C@@H]2c3cc4c(cc3[C@@H](O[C@@H]3O[C@@H]5CO[C@@H](C)O[C@H]5[C@H](O)[C@H]3O)[C@H]3COC(=O)[C@H]23)OCO4)cc(OC)c1O` [etoposide] + Cc1nc(Nc2ncc(C(=O)Nc3c(C)cccc3Cl)s2)cc(N2CCN(CCO)CC2)n1 [dasatanib] (first compound 0.02 µM, partner dose 0.004 µM) registered a cell count of 81%.

Turning to `COc1cc([C@@H]2c3cc4c(cc3[C@@H](O[C@@H]3O[C@@H]5CO[C@@H](C)O[C@H]5[C@H](O)[C@H]3O)[C@H]3COC(=O)[C@H]23)OCO4)cc(OC)c1O` [etoposide] + O=c1[nH]nc(Sc2ncc([N+](=O)[O-])s2)n1-c1ccc2c(c1)OCCO2 [BI78D3] (first compound 0.02 µM, partner dose 0.2 µM), the cell count is 79.4%.

In turn, `Cn1cnc2c(F)c(Nc3ccc(Br)cc3Cl)c(C(=O)NOCCO)cc21` [selumetinib] + Nc1nc(F)nc2c1ncn2[C@@H]1O[C@H](CO)[C@@H](O)[C@@H]1O [fludarabine] (first compound 0.015 µM, partner dose 0.2 µM) registered a cell count of 82.2%.

In turn, `Cn1cnc2c(F)c(Nc3ccc(Br)cc3Cl)c(C(=O)NOCCO)cc21` [selumetinib] + Clc1ccc(Nc2nnc(Cc3ccncc3)c3ccccc23)cc1 [vatalanib] (first compound 0.015 µM, partner dose 2 µM) registered a cell count of 64.4%.

Regarding `CCN(CC)CCNC(=O)c1c(C)[nH]c(/C=C2\C(=O)Nc3ccc(F)cc32)c1C` [sunitinib] + O=C(O)c1ccc2c(c1)nc(Nc1cccc(Cl)c1)c1ccncc12 [CX4945] (first compound 0.4 µM, partner dose 0.4 µM), the cell count turned out to be 102%.

For `C[C@]1(O)C[C@@H](c2nc(-c3ccc4ccc(-c5ccccc5)nc4c3)c3c(N)nccn32)C1` + NC1(c2ccc(-c3nc4ccn5c(=O)[nH]nc5c4cc3-c3ccccc3)cc2)CCC1 [MK2206] (first compound 0.4 µM, partner dose 0.4 µM), the cell count is 88.3%.

`C[C@]1(O)C[C@@H](c2nc(-c3ccc4ccc(-c5ccccc5)nc4c3)c3c(N)nccn32)C1` + CCCS(=O)(=O)Nc1ccc(F)c(C(=O)c2c[nH]c3ncc(Cl)cc23)c1F [PLX4720] (first compound 0.4 µM, partner dose 0.08 µM) came in with a cell count of 81%.

As for `C[C@]1(O)C[C@@H](c2nc(-c3ccc4ccc(-c5ccccc5)nc4c3)c3c(N)nccn32)C1` + C[C@]1(c2nc3c(C(N)=O)cccc3[nH]2)CCCN1 [Veliparib] (first compound 0.4 µM, partner dose 1.4 µM), the cell count stood at 89.8%.

`COc1cc([C@@H]2c3cc4c(cc3[C@@H](O[C@@H]3O[C@@H]5CO[C@@H](C)O[C@H]5[C@H](O)[C@H]3O)[C@H]3COC(=O)[C@H]23)OCO4)cc(OC)c1O` [etoposide] + CN(c1ncccc1CNc1nc(Nc2ccc3c(c2)CC(=O)N3)ncc1C(F)(F)F)S(C)(=O)=O [PF562271] (first compound 0.02 µM, partner dose 0.08 µM) yielded a cell count of 92.1%.

`C[C@]1(O)C[C@@H](c2nc(-c3ccc4ccc(-c5ccccc5)nc4c3)c3c(N)nccn32)C1` + Clc1ccc(Nc2nnc(Cc3ccncc3)c3ccccc23)cc1 [vatalanib] (first compound 0.4 µM, partner dose 2 µM) registered a cell count of 99.1%.

For `COc1cc([C@@H]2c3cc4c(cc3[C@@H](O[C@@H]3O[C@@H]5CO[C@@H](C)O[C@H]5[C@H](O)[C@H]3O)[C@H]3COC(=O)[C@H]23)OCO4)cc(OC)c1O` [etoposide] + O=C(O)[C@@H]1[O][Sb](=[O])([O][Sb]2(=[O])[O][C@H]([C@H](O)CO)[C@H](O)[C@H](C(=O)O)[O]2)[O][C@H]([C@H](O)CO)[C@@H]1O [stibogluconate] (first compound 0.02 µM, partner dose 2 µM), the cell count stood at 83.5%.

On to `CCN(CC)CCNC(=O)c1c(C)[nH]c(/C=C2\C(=O)Nc3ccc(F)cc32)c1C` [sunitinib] + Cn1c(Nc2ccc(C(F)(F)F)cc2)nc2cc(Oc3ccnc(-c4ncc(C(F)(F)F)[nH]4)c3)ccc21 [CHIR265] (first compound 0.4 µM, partner dose 0.08 µM), for which the cell count was determined as 71.8%.

With `CCN(CC)CCNC(=O)c1c(C)[nH]c(/C=C2\C(=O)Nc3ccc(F)cc32)c1C` [sunitinib] + CNC(=O)c1cc(Oc2ccc(NC(=O)Nc3ccc(Cl)c(C(F)(F)F)c3)cc2)ccn1 [sorafenib] (first compound 0.4 µM, partner dose 0.4 µM), the cell count worked out at 105%.

In turn, `C[C@]1(O)C[C@@H](c2nc(-c3ccc4ccc(-c5ccccc5)nc4c3)c3c(N)nccn32)C1` + C=C(c1ccc(C(=O)O)cc1)c1cc2c(cc1C)C(C)(C)CCC2(C)C [Bexarotene] (first compound 0.4 µM, partner dose 2 µM) had a cell count of 95.7%.

`CCN(CC)CCNC(=O)c1c(C)[nH]c(/C=C2\C(=O)Nc3ccc(F)cc32)c1C` [sunitinib] + CN(c1ncccc1CNc1nc(Nc2ccc3c(c2)CC(=O)N3)ncc1C(F)(F)F)S(C)(=O)=O [PF562271] (first compound 0.4 µM, partner dose 0.08 µM) gave a cell count of 108%.

In turn, `CCN(CC)CCNC(=O)c1c(C)[nH]c(/C=C2\C(=O)Nc3ccc(F)cc32)c1C` [sunitinib] + NC1(c2ccc(-c3nc4ccn5c(=O)[nH]nc5c4cc3-c3ccccc3)cc2)CCC1 [MK2206] (first compound 0.4 µM, partner dose 0.4 µM) displayed a cell count of 96.9%.

Consider `Cn1cnc2c(F)c(Nc3ccc(Br)cc3Cl)c(C(=O)NOCCO)cc21` [selumetinib] + CNC(=O)c1cc(Oc2ccc(NC(=O)Nc3ccc(Cl)c(C(F)(F)F)c3)cc2)ccn1 [sorafenib] (first compound 0.015 µM, partner dose 0.4 µM), for which the cell count was determined as 96.7%.

The compound `Cn1cnc2c(F)c(Nc3ccc(Br)cc3Cl)c(C(=O)NOCCO)cc21` [selumetinib] + Cc1cc(Nc2cc(N3CCN(C)CC3)nc(/C=C/c3ccccc3)n2)n[nH]1 [ENMD2076] (first compound 0.015 µM, partner dose 0.04 µM) registered a cell count of 60.7%.

Compound `COc1cc([C@@H]2c3cc4c(cc3[C@@H](O[C@@H]3O[C@@H]5CO[C@@H](C)O[C@H]5[C@H](O)[C@H]3O)[C@H]3COC(=O)[C@H]23)OCO4)cc(OC)c1O` [etoposide] + Nc1nc(F)nc2c1ncn2[C@@H]1O[C@H](CO)[C@@H](O)[C@@H]1O [fludarabine] (first compound 0.02 µM, partner dose 0.2 µM) had a cell count of 102%.

In the case of `COc1cc([C@@H]2c3cc4c(cc3[C@@H](O[C@@H]3O[C@@H]5CO[C@@H](C)O[C@H]5[C@H](O)[C@H]3O)[C@H]3COC(=O)[C@H]23)OCO4)cc(OC)c1O` [etoposide] + Cn1sc(=O)n(Cc2ccccc2)c1=O [TDZD-8] (first compound 0.02 µM, partner dose 0.4 µM), the cell count came out at 94.3%.

With `Cn1cnc2c(F)c(Nc3ccc(Br)cc3Cl)c(C(=O)NOCCO)cc21` [selumetinib] + CO[C@H]1C[C@@H]2CC[C@@H](C)[C@@](O)(O2)C(=O)C(=O)N2CCCC[C@H]2C(=O)O[C@H]([C@H](C)C[C@@H]2CC[C@@H](OCCO)[C@H](OC)C2)CC(=O)[C@H](C)/C=C(\C)[C@@H](O)[C@@H](OC)C(=O)[C@H](C)C[C@H](C)/C=C/C=C/C=C/1C [everolimus] (first compound 0.015 µM, partner dose 0.02 µM), the cell count was found to be 59.5%.

As for `Cn1cnc2c(F)c(Nc3ccc(Br)cc3Cl)c(C(=O)NOCCO)cc21` [selumetinib] + COc1ccc(C2=N[C@@H](c3ccc(Cl)cc3)[C@@H](c3ccc(Cl)cc3)N2C(=O)N2CCNC(=O)C2)c(OC(C)C)c1 [Nutlin-3] (first compound 0.015 µM, partner dose 0.1 µM), the cell count is 59.5%.

Compound `C[C@]1(O)C[C@@H](c2nc(-c3ccc4ccc(-c5ccccc5)nc4c3)c3c(N)nccn32)C1` + CN(c1ncccc1CNc1nc(Nc2ccc3c(c2)CC(=O)N3)ncc1C(F)(F)F)S(C)(=O)=O [PF562271] (first compound 0.4 µM, partner dose 0.08 µM) yielded a cell count of 69.9%.

Values taken from the supplement of paper PMC4604168 (melanoma cell lines).
